# Measurements taken from PubChem BioAssay AID720709 (National Center for Advancing Translational Sciences (NCATS), 2013).
# The campaign covered roughly 360,000 compounds. About 520 (0.14%) were called active. The inconclusive results got no clear call from the source; some entries with a clear call stand among them for comparison. Calls follow the shape of the dose curve; as a rule, active = well fitted inhibition curve with a large enough effect; inconclusive = small, poorly fitted or top-dose-only effect; inactive = no such curve, though single readings can be large or run the other way. Potencies of inconclusive entries are left out as doubtful fits.
# Biological target: Rap guanine nucleotide exchange factor 3 (Homo sapiens) (UniProt O95398)
# Assay: qHTS for Antagonist of cAMP-regulated guanine nucleotide exchange factor 3 (EPAC1): primary screen; also: nearly all actives have a fitted effect of over 50% in size;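 as to activity change, negative = inhibition: plate controls were vehicle for no effect and positive control for full effect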
# Conditions: EPAC1 GEF assay, Rap1b-BODIPY-GDP exchange fluorescence; activity change, negative = inhibition: at 115 µM (top of the series)
# Description: In multi-cellular eukaryotic organisms, the effects of cAMP are transduced by two ubiquitously-expressed intracellular cAMP receptors, the classic protein kinase A/cAMP-dependent protein kinase (PKA/cAPK) and the more recently discovered exchange protein directly activated by cAMP/cAMP-regulated guanine nucleotide exchange factor (EPAC/cAMP-GEF). Both PKA and EPAC are ubiquitously expressed in all tissues, and an increase in intracellular cAMP levels will lead to the activation of both PKA and EPAC. Therefore, careful dissections of the individual role and relative contribution of EPAC and PKA within the overall cAMP signaling in various model systems are critical for further elucidating the mechanism of cAMP signaling. To date no EPAC-specific antagonists and agonist, as well as isoform-specific agonists have been reported, and developing EPAC-specific pharmacological probes to determine the physiological functions that EPAC play in the overall cAMP-mediated signaling remains a major challenge within the research field. Furthermore, identified regulators of EPAC may lead to new mechanism-based therapeutic strategies specifically targeting the EPAC / cAMP-signaling components as EPAC has been implicated to play important roles in major human pathological conditions such as diabetes, heart disease, and cancer. This qHTS will be used to screen the Molecular Libraries Small Molecule Repository (MLSMR) as a concentration-titration series using the NCGC unique quantitative screening (qHTS) platform to find inhibitors for EPAC1. In addition, this assay will also be used as a counterscreen for the EPAC2 qHTS. This fluorescent based assay is developed and validated for EPAC1 that measures exchange using EPAC effector Rap1 complex with BODIPY-GDP, a GDP analog with a tethered fluorophores. Inhibitors are identified by monitoring the change in fluorescence signal as the exchanged free BODIPY-GDP has a reduced fluorescence compared to Rap1-bound BODIPY-GDP. Decrease in signal (inhibition) is the desired outcome for the EPAC1 antagonist while no activity in this assay is desired for the EPAC2 antagonist counterscreen. de Rooij, J., Zwartkruis, F. J., Verheijen, M. H., Cool, R. H., Nijman, S. M., Wittinghofer, A., and Bos, J.L. (1998) Nature 396, 474-477 [2] Kawasaki, H., Springett, G. M., Mochizuki, N., Toki, S., Nakaya, M., Matsuda, M., Housman, D. E., and Graybiel, A. M. (1998) Science 282, 2275-2279 NIH Chemical Genomics Center [NCGC] NIH Molecular Libraries Probe Centers Network [MLPCN] MLPCN Grant: NS066510 Assay Submitter (PI): Xiaodong Cheng, The University of Texas, Medical Branch
# Briefly, three uL of reagents (100 nM EPAC1, 250 nM RAP1B-BODIPY-GDP, 50 uM GDP) were dispensed into a 1536-well Greiner black solid-bottom medium binding assay plate. Controls and test compounds (23 nL) were transferred to the plate via a Kalypsys pin tool equipped with a 1536-pin array. The plates were centrifuged at 1,000 rpm for 15 seconds followed by 5 minute incubation at room temperature. The assay plates were read at 5 minute intervals for 30 minutes in the ViewLux plate reader using 480nm excitation and 540nm emission filters. The results were normalized to the […] positive control ATA and DMSO.
# Potency is read from the fitted curve at half-maximal effect; tags tell the direction and shape of the fitted curve.
# Chain of UniProt O95398 (O95398 whole entry, looked up): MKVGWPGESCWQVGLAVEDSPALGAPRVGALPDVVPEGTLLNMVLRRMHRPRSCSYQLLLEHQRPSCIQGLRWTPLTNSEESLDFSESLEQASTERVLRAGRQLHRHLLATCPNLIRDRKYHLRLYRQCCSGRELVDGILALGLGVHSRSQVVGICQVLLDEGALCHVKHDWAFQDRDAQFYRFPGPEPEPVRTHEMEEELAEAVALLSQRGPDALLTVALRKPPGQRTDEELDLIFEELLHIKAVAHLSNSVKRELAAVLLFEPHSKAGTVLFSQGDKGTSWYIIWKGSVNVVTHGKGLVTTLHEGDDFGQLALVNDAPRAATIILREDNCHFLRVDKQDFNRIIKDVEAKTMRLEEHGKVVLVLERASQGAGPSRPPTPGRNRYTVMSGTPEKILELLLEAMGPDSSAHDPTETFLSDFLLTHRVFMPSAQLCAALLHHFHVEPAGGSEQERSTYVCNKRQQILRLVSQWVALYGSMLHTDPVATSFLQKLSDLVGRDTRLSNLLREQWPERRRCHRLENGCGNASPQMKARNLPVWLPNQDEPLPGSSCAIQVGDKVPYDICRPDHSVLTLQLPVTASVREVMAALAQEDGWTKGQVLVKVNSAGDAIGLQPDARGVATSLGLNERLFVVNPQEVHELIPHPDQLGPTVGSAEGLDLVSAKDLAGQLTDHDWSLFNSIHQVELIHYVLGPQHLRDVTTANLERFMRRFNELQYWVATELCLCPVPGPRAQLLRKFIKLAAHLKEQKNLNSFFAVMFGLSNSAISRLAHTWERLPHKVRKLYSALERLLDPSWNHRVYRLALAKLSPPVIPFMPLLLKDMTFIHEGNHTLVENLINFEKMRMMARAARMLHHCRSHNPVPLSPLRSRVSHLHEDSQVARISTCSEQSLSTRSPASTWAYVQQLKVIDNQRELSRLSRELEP
SMILES,"activity change, negative = inhibition",Potency
C[C@H]1COC(=O)[C@@H](Cc2ccc(F)cc2)CC/C=C/C[C@H](CC(=O)N(CCO)Cc2ccccc2)C(=O)N1,inactive: 2.01%,
O=C(c1ccco1)[C@@H]1[C@@H]2C(=O)N(c3ccc(Br)cc3)C(=O)[C@@H]2C2c3ccccc3C=CN21 (stereo partly specified),inactive: -13.3%,
COc1ccc(/C=N/NC(=O)c2cc(C(C)(C)C)[nH]n2)cc1COc1ccc(F)cc1F,,"inconclusive [inhibitor, single point]"
COc1nc(N(C)S(=O)(=O)c2ccc(C)cc2)nc(C)c1Br,inactive: -1.47%,
COC1=CC(=O)C(O)=C(CCCCCCC/C=C/CCCCCCCC2=C(O)C(=O)C=C(OC)C2=O)C1=O,,"inconclusive [inhibitor, full curve]"
O=C(Cc1cccs1)N1CCN(S(=O)(=O)c2ccc(Cl)c(C(F)(F)F)c2)CC1,,"inconclusive [inhibitor, partial curve]"
CCOc1cc(/C=N/NC(=O)CN(CCc2ccccc2)S(=O)(=O)c2ccc(NC(C)=O)cc2)ccc1O,,"inconclusive [inhibitor, single point]"
CC(NCc1ccc(OCc2ccc(Cl)cc2)cc1)C(O)c1ccccc1 (stereo unspecified),,"inconclusive [inhibitor, full curve, poor fit]"
COc1cc(CNc2ccccc2)c([N+](=O)[O-])cc1OC,,"inconclusive [inhibitor, full curve, poor fit]"
COc1ccccc1CNc1ncnc2c1cnn2-c1ccccc1,,"inconclusive [inhibitor, partial curve, poor fit]"
CCCCCC/C=N/Nc1nnc(Cc2ccccc2)c(=O)[nH]1,,"inconclusive [inhibitor, full curve, poor fit]"
O=C(/C=C/c1ccc2c(c1)OCO2)N1CCN(c2ccccc2F)CC1,,"inconclusive [inhibitor, single point]"
COc1ccc(S(=O)(=O)N[C@@H](Cc2ccccc2)C(=O)N2CC[C@@]3(O)CCCC[C@H]3C2)cc1,,"inconclusive [inhibitor, single point]"
C=CCNC(=O)COC(=O)c1ccccc1C(=O)N(C)C1CCCCC1,,"inconclusive [inhibitor, single point]"
COc1ccc(C(NC(=O)C2CCN(CCCOc3ccccc3)CC2)c2cccs2)cc1 (stereo unspecified),,"inconclusive [inhibitor, partial curve]"
CCOC(=O)C1=C(C)Nc2nc(SCc3cccnc3)nn2C1c1ccc(OC)cc1 (stereo unspecified),,"inconclusive [inhibitor, single point]"
Cc1ccc(C(=O)NNc2cc(N3CCCC3)nc(N3CCCC3)n2)cc1,inactive: 0.223%,
Cc1ccc(S(=O)(=O)Nc2ccc(N=Nc3ccc(O)cc3)cc2)cc1,inactive: -3.55%,
Cc1noc(/C=C/N(C)C)c1S(=O)(=O)N1CCCC(C(=O)Nc2ccc3c(c2)OCO3)C1 (stereo unspecified),inconclusive: -9% [inhibitor],
CC(C)N1CCc2c(sc(NC(=O)c3cc(-c4cccs4)nc4ccccc34)c2C(N)=O)C1,,"inconclusive [inhibitor, full curve]"
CNC(=O)NC(=O)C(OC(=O)Cc1cccc(C(F)(F)F)c1)c1ccccc1 (stereo unspecified),,"inconclusive [inhibitor, partial curve]"
O=C(NCC(=O)N1CCN(c2ccccc2O)CC1)c1ccc2ccccc2c1,,"inconclusive [inhibitor, single point]"

SMILES,"activity change, negative = inhibition",Potency
COc1ccc(C2=NS(=O)(=O)N(C)C(C(=O)NCc3ccc4c(c3)OCO4)=C2)cc1,,"inconclusive [inhibitor, single point]"
O=C(Oc1c(CN2CCOCC2)cc(Cl)c2cccnc12)c1ccccc1F,inactive: -22.4%,
CC1CCc2c(sc3nc(C(C)(C)C)nc(N4CCN(C(=O)CCl)CC4)c23)C1 (stereo unspecified),,"inconclusive [inhibitor, partial curve, poor fit]"
Cc1ccc(NC(=O)CN2C(=O)C3C4C=CC(C4)C3C2=O)cc1 (stereo unspecified),,"inconclusive [inhibitor, single point]"
Cc1ccc(C2/C=C\CC(NC(=O)OCC3c4ccccc4-c4ccccc43)CC(=O)N2Cc2ccccc2)cc1 (stereo unspecified),inactive: 6.12%,
O=C(c1ccc(S(=O)(=O)c2ccccc2Cl)c([N+](=O)[O-])c1)N1CCN(Cc2ccccc2)CC1,inactive: -8.08%,
Cc1cccc(-n2nc3c(c2NC(=O)C(C)C)CSC3)c1,,"inconclusive [inhibitor, single point]"
Cc1cccc(/C=N/NC(=O)c2cc(Br)ccc2OCc2ccccc2)n1,,"inconclusive [inhibitor, partial curve]"
COc1cccc(OC)c1NC(=O)c1ccc(-c2cc(Cl)ccc2Cl)o1,inactive: -22.3%,
COc1ccc(OC)c(C(=O)NC2CCCc3c2cnn3-c2cc(C)cc(C)c2)c1 (stereo unspecified),,"inconclusive [inhibitor, partial curve, poor fit]"
COc1ccc(N2C(=O)C3NN=C(C(=O)OCc4ccccc4)C3C2=O)cc1 (stereo unspecified),inactive: 3.16%,
CCc1nc2c(OCc3ccc(C#N)cc3)cccn2c1N(C)C(=O)c1ccc(C)cc1,inactive: 21%,
O=C(NC(=S)NCCO)c1sc2ccccc2c1Cl,inactive: 4.64%,
O=C(Nc1ccccc1)Nc1cccc(-c2nnco2)c1,,"inconclusive [inhibitor, single point]"
COc1ccc(/C=N/NC(=O)c2ccccc2O)cc1Cn1nnc2ccccc21,,"inconclusive [inhibitor, partial curve]"
COc1cc(S(=O)(=O)N2CCN(Cc3ccccc3)CC2)ccc1Br,,"inconclusive [inhibitor, partial curve, poor fit]"
CCCCN1C(=O)C(CC(=O)NCc2ccco2)CC(C(=O)N(C)C)=C1C (stereo unspecified),inactive: 1.42%,
C=C(c1cccc2ccccc12)P(=O)(O)O,inactive: -7.05%,
CCN(CC)S(=O)(=O)c1cccc(C(=O)N/N=C/c2ccc(O)c(O)c2O)c1,,"inconclusive [inhibitor, single point]"
CCOc1ccc(CC(=O)NNC(=S)Nc2ccccc2)cc1Br,,"inconclusive [inhibitor, full curve, poor fit]"
COc1ccc(Br)c2oc(S)cc(=O)c12,inactive: -7.18%,
CCOCc1nnc(NC(=O)C2c3ccccc3Oc3ccccc32)s1,,"inconclusive [inhibitor, partial curve]"

SMILES,"activity change, negative = inhibition",Potency
Cc1cc(OCC(=O)Nc2ccc(Br)cc2)cc2c1C(=O)CC(C)(C)O2,inconclusive: -21.7% [inhibitor],
CCC(c1nc2ccccc2[nH]1)N(Cc1cccnc1)C(=O)c1cc(-c2ccccc2)on1 (stereo unspecified),,"inconclusive [inhibitor, partial curve]"
COc1ccc(N2CCC(CNC(=S)Nc3cc(C)cc(C)c3)C2)cc1 (stereo unspecified),,"inconclusive [inhibitor, partial curve]"
O=C(N[C@H]1/C=C\[C@@H](O)CCCC1)OCc1ccccc1,inactive: 1.92%,
CCCC(=O)NCc1ccc2c(c1)cc(C)n2C,inactive: -1.27%,
S=c1[nH]nc(-c2cc3c(s2)-c2ccccc2CC3)o1,,"inconclusive [inhibitor, partial curve]"
O=C(c1ccco1)N1N=C(C2CCCCC2)CC1(O)C(F)(F)F (stereo unspecified),inactive: -19.2%,
Cc1ccc(CSc2nc(-c3ccccc3)c(C#N)c(=O)[nH]2)cc1,,"inconclusive [inhibitor, partial curve]"
Cc1ccccc1OCC(O)CN(Cc1ccccc1O)C1CCCCC1 (stereo unspecified),,"inconclusive [inhibitor, partial curve]"
CCn1c(SCC(=O)Nc2sc3c(c2C(N)=O)CCC(C)C3)nnc1-c1ccco1 (stereo unspecified),,"inconclusive [inhibitor, partial curve]"
O=C(NCCOc1ccc(F)cc1)c1ccccc1SCc1ccccc1,inactive: -7.4%,
Fc1ccc(/C=N\Nc2cccc(F)c2)cc1,,"inconclusive [inhibitor, full curve, poor fit]"
O=S(=O)(NCCN1CCOCC1)c1ccc2c(c1)OCCO2,,"inconclusive [inhibitor, full curve]"
COc1ccc(CN2CCC(C)(Oc3cccc(F)c3)C2)c2ccccc12 (stereo unspecified),,"inconclusive [inhibitor, partial curve]"
COc1ccc(Br)cc1CN(C)CC(=O)Nc1c(Cl)ccc(C)c1Cl,,"inconclusive [inhibitor, full curve, poor fit]"
O=C(CCSCCC(=O)NCc1cccs1)NCc1cccs1,,"inconclusive [inhibitor, full curve, poor fit]"
NN=C1c2ccccc2C(=O)C1C(=O)C(c1ccccc1)c1ccccc1 (stereo unspecified),,"inconclusive [inhibitor, full curve]"
CCOC(=O)CN1C(=O)S/C(=C/c2cc(C)n(-c3ccccn3)c2C)C1=O,,"inconclusive [inhibitor, partial curve]"
COc1ccc(NS(=O)(=O)c2cccc(C(=O)N3CCN(Cc4ccc5c(c4)OCO5)CC3)c2)cc1,,"inconclusive [inhibitor, single point]"
CC(C(=O)Nc1ccccc1-c1ccccc1)N1CCN(C(=O)c2ccccc2)CC1 (stereo unspecified),inactive: 9.52%,
Cc1cccc(Nc2nnc(-c3ccc(N4CCOCC4)c([N+](=O)[O-])c3)c3ccccc23)c1,,"inconclusive [inhibitor, partial curve]"
CC(NC(=O)c1ccc(Br)s1)c1ccncc1 (stereo unspecified),,"inconclusive [inhibitor, single point]"
